# Measured values: a collection of fitness landscapes (doi:10.1016/j.celrep.2020.107928)
# In all, about 81,000 sequences were measured (“one-hybrid fitness for binding NBS DNA”: median about -0.1, highest 2% from about 0.36 on). Some of the results follow.
# B1: Caulobacter ParB omega fusion; a variant is named by its letters at X, in order, B8GW30 (parent)
# chain: MESVVVGEPGMSEGRRGLGRGLSALLGEVDAAPAQAPGEQLGGSREAPIEILQRNPDQPRRTFREEDLEDLSNSIREKGVLQPILVRPSPDTAGEYQIVAGERAWRAAQRAGLKTVPIMVRELDDLAVLEIGIIENVQRADLNVLEEALSYKVLMEKFERTQENIAQTIGKSXSHVANXMRLLXLPDEVQSYLVSGELTAXHARAIAAAADPVALAKQIIEGGLSVRETEALARKAPNLSAGKSKGGRPPRVKDTDTQALESDLSSVLGLDVSIDHRGSTGTLTITYATLEQLDDLCNRLTRGI
# Variants of: B1
# Experiment: one-hybrid fitness for binding NBS DNA (the Noc-binding site; scaled: cognate 1, non-cognate 0); higher = stronger binding
# Details: with NBS DNA site
# Method in brief: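 Pre- and post-selection plasmids were Illumina-sequenced, three replicate libraries were pooled, and any variant with under 10 reads was removed. The libraries were Caulobacter ParB with four specificity codons randomised, selected in E. coli USO through a HIS3 reporter whose site is 19 bp from the promoter. Cells grew 48 hours at 37°C on M9 without histidine, with 0.1 mM IPTG and 5 mM 3-AT. Fitness is the log change in variant-to-wild-type read ratio, rescaled against cognate and non-cognate.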
row,Variant,one-hybrid fitness for binding NBS DNA
1,ASAD,≤ 0.2
2,QTGP,≤ 0.2
3,GSSS,≤ 0.2
4,MWGG,≤ 0.2
5,TNGP,≤ 0.2
6,MAKI,≤ 0.2
7,YPGT,≤ 0.2
8,HRAT,≤ 0.2
9,MTAD,≤ 0.2
10,SPDA,≤ 0.2
11,QPYI,≤ 0.2
12,ASLF,≤ 0.2
13,DAAY,≤ 0.2
14,LTVV,≤ 0.2
15,TKWR,≤ 0.2
16,TYHD,≤ 0.2
17,GDKK,≤ 0.2
18,GWLA,≤ 0.2
19,HFPS,≤ 0.2
20,QVKC,0.2
21,NRHQ,≤ 0.2
22,DLPN,≤ 0.2
23,RIIG,≤ 0.2
24,KKDS,≤ 0.2
25,VTQM,≤ 0.2

row,Variant,one-hybrid fitness for binding NBS DNA
1,LMMC,≤ 0.2
2,APEC,≤ 0.2
3,TVPG,≤ 0.2
4,PGYR,≤ 0.2
5,MKSA,≤ 0.2
6,GGCR,≤ 0.2
7,RIFP,≤ 0.2
8,VYDR,≤ 0.2
9,RNAF,≤ 0.2
10,SSSR,≤ 0.2
11,SQYG,≤ 0.2
12,TQID,≤ 0.2
13,QVLC,≤ 0.2
14,QWMY,≤ 0.2
15,TQHS,≤ 0.2
16,CEGG,≤ 0.2
17,HPWF,≤ 0.2
18,QCVL,≤ 0.2
19,ITNT,≤ 0.2
20,YSGG,≤ 0.2
21,GLVV,≤ 0.2
22,PVFY,≤ 0.2
23,PNIL,≤ 0.2
24,MYGL,≤ 0.2
25,ESAS,≤ 0.2

row,Variant,one-hybrid fitness for binding NBS DNA
1,PNES,≤ 0.2
2,AHRK,≤ 0.2
3,GRNH,≤ 0.2
4,HAKV,≤ 0.2
5,PIAR,≤ 0.2
6,EQGS,≤ 0.2
7,HVCY,≤ 0.2
8,RDHT,≤ 0.2
9,LPLK,≤ 0.2
10,LYHC,≤ 0.2
11,MESS,≤ 0.2
12,FVLR,≤ 0.2
13,DLSS,≤ 0.2
14,SWKS,≤ 0.2
15,MPSI,≤ 0.2
16,LELS,≤ 0.2
17,WINC,≤ 0.2
18,CRMC,≤ 0.2
19,LTRC,≤ 0.2
20,LSDW,≤ 0.2
21,QHPI,≤ 0.2
22,PDWN,≤ 0.2
23,YRNL,≤ 0.2
24,FFAI,≤ 0.2
25,WMTT,≤ 0.2

row,Variant,one-hybrid fitness for binding NBS DNA
1,FTRL,≤ 0.2
2,RCGS,0.482
3,QLQD,≤ 0.2
4,GHLL,≤ 0.2
5,GAAR,≤ 0.2
6,QSMW,≤ 0.2
7,NYKR,≤ 0.2
8,NAVG,≤ 0.2
9,CDRS,≤ 0.2
10,STAA,≤ 0.2
11,RNTD,≤ 0.2
12,QPPF,≤ 0.2
13,ARSM,≤ 0.2
14,FGDW,≤ 0.2
15,EWCS,≤ 0.2
16,APRT,≤ 0.2
17,ANHM,≤ 0.2
18,TVDM,≤ 0.2
19,CTDA,≤ 0.2
20,HLQA,≤ 0.2
21,GGTW,≤ 0.2
22,QIWL,≤ 0.2
